Hit rate of the full screen: of about 360,000 compounds, about 740 (0.21%) were called active. Inconclusive results, whose numbers are uncertain, are shown with a selection of clear calls. The call rests on the fitted dose curve; in most records, active means well fitted inhibition curve with a large enough effect; inconclusive means small, poorly fitted or top-dose-only effect; inactive means no such curve, though single readings can be large or run the other way. No potency is given beside an inconclusive call; the fits are too rough.
What follows are compounds tested on Plasmodium falciparum AMA1 (3D7) - RON2 peptide interaction (assay: qHTS for Inhibitors of AMA1-RON; Towards Development of Antimalarial Drug Lead: Primary Screen). Settings: AlphaScreen AMA1-biotinylated RON2 peptide binding; activity change, negative = inhibition: at 58.2 µM (top of the series) unless noted.
Description: Plasmodium, the causative agent of malaria, is one of the world's deadliest parasitic diseases. Currently there is no vaccine available and there is widespread resistance to common anti-malarial drugs. This warrants novel, alternative approaches for developing improved therapy. During infection, one such essential interaction is between two parasite proteins, the apical membrane antigen1 (AMA1) that is translocated onto the merozoite surface and the rhoptry neck protein 2 (RON2), which is transferred to the red blood cells (RBC) membrane during invasion (Besteiro et.al., 2009). Recently, the Miller lab has shown that the interaction between AMA1 and RON2 is essential for junction formation of the parasite with the host cell (Srinivasan et.al., 2011). The binding of the RON2 peptide to the hydrophobic pocket in AMA triggers the formation of the moving junction which provides a firm anchor for the parasite to pull itself into the RBC using its actin-myosin motor; an irreversible step that commits the parasite for invasion. Only one AMA1 and RON2 genes exists in Plasmodium and there are no alternate pathways. Moreover, the region corresponding to RON2 peptide is conserved in all P. falciparum isolates for which sequences are available. The key residues in the AMA1 hydrophobic pocket that binds RON2 are also conserved and indicate a functional constraint governing this essential step in invasion since a short RON2 peptide (RON2L) corresponding to the binding region on AMA1 is sufficient to compete with the native RON2 protein and inhibits invasion (Tonkin et.al, 2011). Therefore, developing small molecule inhibitors of this interaction offers a promising target opening a new arena for anti-malarial therapeutics drug design.
In collaboration with the Miller lab, a quantitative High Throughput Screen using the AlphScreen technology was developed using a recombinant his-tagged AMA1 and a biotinylated RON2 peptide. This fluorescent screen was assayed against the NIH Molecular Libraries Small Molecule Repository (MLSMR). Inhibition of this protein-protein interaction is the desired outcome of this assay. However, due the limitations of this AlphaScreen assay, a large number of artifacts were observed. An AlphaScreen counterscreen was run to identify the true inhibitors, triage compound activity, and weed out false positives.
NIH Chemical Genomics Center [NCGC]
NIH Molecular Libraries Probe Centers Network [MLPCN]
Assay Submitter (PI): Louis Miller, National Institute of Allergy and Infectious Disease (NIAID)
Two microliters of his-tagged AMA1 3D7 allele protein (final concentration 25 nM) was dispensed into a 1,536-well assay plate. Small molecules and positive control peptides were pin-transferred (23 nL or 46 nL) via Kalypsys pin-tool equipped with a 1,536-pin array, resulting in final compound and peptide concentration ranges of 91.5 nM - 57.2 µM, and 15.6 nM - 2.00 µM, respectively. Unlabeled RON2 peptide or R1 peptide ([…]) that specifically binds the 3D7 AMA1 was used as a positive control that inhibited the binding of RON2L to AMA1. After 15 minutes incubation, 1 uL of biotinylated RON2 peptide (final concentration 25 nM) or buffer were dispensed and the assay plate was incubated for an additional 30 minutes at room temperature and protected from light. This was followed by an addition of 1 uL mixture of donor and acceptor beads (10 ug/mL final concentrations for each). The plates were incubated for 30 min at room temperature and read using the EnVision(R) plate reader (PerkinElmer). Maximum inhibition response was normalized to the positive control signal while no inhibition response was normalized to the DMSO treated wells.
For CC(C)(C)OC(=O)N(CC1CCNCC1)C(=O)c1[nH]c(C(F)(F)F)nc1-c1ccccc1, the Potency was inconclusive [inhibitor, partial curve]. In the case of Cc1ccc(NC(=O)NC2(C(=O)NCc3ccco3)CCCCC2)cc1, the Potency is reported as inconclusive [inhibitor, single point]. For O=C(c1ccccc1F)N1CCN(CC2CC3C=CC2C3)CC1 (centres undefined), the Potency was inconclusive [inhibitor, partial curve]. For Cc1ccc(Sc2ccc([N+](=O)[O-])cc2[N+](=O)[O-])nc1, the Potency was inconclusive [inhibitor, partial curve]. CN(C)c1cccc(NC(=O)c2cccc3ccccc23)c1 was tested, and the Potency was inconclusive [inhibitor, partial curve]. With CC(/C=N\N1CCN(Cc2ccc(C)cc2)CC1)=C\c1ccccc1 the Potency was inconclusive [inhibitor, partial curve]. With COc1cc(Cl)c(C)cc1NC(C)C(=O)Nc1cc(C(F)(F)F)ccc1N1CCOCC1 (centres undefined) the Potency was inconclusive [inhibitor, partial curve, poor fit]. In the case of Cc1cccc(Nc2cc(C)c3c(O)cccc3n2)c1C, the Potency is reported as inconclusive [inhibitor, partial curve]. Nc1ccc2c(c1)C(=NO)c1cc([N+](=O)[O-])ccc1-2 was tested, and the activity change, negative = inhibition was inconclusive: -19% [inhibitor]. With COc1ccccc1CNC(=O)COC(=O)COc1ccccc1Cc1ccccc1 the “activity change, negative = inhibition” value was inactive: 19.9%. O=C(O)CCC1OC(=O)C(O)=C1c1ccccc1 (centres undefined) was tested, and the “activity change, negative = inhibition” value was inactive: 1.43%. In the case of Cc1coc2c(O)cc3c(c12)OC1(N2CCCCC2)C(=O)NCCCC31 (centres undefined), the Potency is reported as inconclusive [inhibitor, single point]. O=C1c2ccccc2-c2onc3ccc(NCCCn4ccnc4)c1c23 was tested, and the Potency was active: 23.8 µM. Cc1ccc2nc(NCCNC(=O)c3ccccc3)c(C#N)cc2c1 was tested, and the “activity change, negative = inhibition” value was inactive: 10.6%. With CC(C)COc1ccc(C/C(N)=N/n2cnnc2)cc1 the Potency was inconclusive [inhibitor, full curve]. For Oc1c(CN2CCOCC2)ccc(CN2CCOCC2)c1O, the Potency was inconclusive [inhibitor, partial curve]. In the case of CC(=O)Nc1ccc(NC(=O)CSc2ccc3nnc(-c4ccccn4)n3n2)cc1, the Potency is reported as inconclusive [inhibitor, partial curve]. For CN(C)C(CNC(=O)c1cc(-c2ccco2)nc2ccccc12)c1ccccc1 (centres undefined), the Potency was inconclusive [inhibitor, partial curve]. For COC(=O)c1ccc(=O)c2nc3/c(=C/O)c(O)cc(=O)c3[nH]c12, the Potency was active: 1.26 µM.

Source: PubChem BioAssay AID720542 (National Center for Advancing Translational Sciences (NCATS), 2013)
Further: nearly all actives have a fitted effect of over 45% in size.
Potency means the concentration at half of the fitted maximal effect; tags describe the fitted curve by direction and shape.
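Wherever activity change, negative = inhibition is given: 0% = vehicle wells and -100% = peptide control.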
